We go through 13 compounds from the supplement of paper PMC9174493.

The list shows a part of the results. Single values of this set are uncertain. Values with irradiation are relative to irradiated vehicle.

In the assay the test system is A549-Dual. The assay can be described thus: ISRE reporter (Lucia luciferase) activity, viability-corrected, relative to vehicle (fold change vs vehicle); higher = more activation of STING-IRF / NF-kB immune response reporter. Particulars: 10 µM; irradiation: 8 Gy/4 fr.
`CCN(C)C(=O)Oc1cccc(C(C)N(C)C)c1.O=C(O)C(O)C(O)C(=O)O` (stereo not drawn) [Rivastigmine Tartrate] displayed an ISRE reporter of 0.624.
`Cc1cccc(C(C)c2cnc[nH]2)c1C.Cl` (stereo not drawn) [Dexmedetomidine HCl] yielded an ISRE reporter of 0.469.
Take `CC(=O)OCC1=C(C(=O)O)N2C(=O)C(N)C2SC1` (stereo not drawn) [7-Aminocephalosporanic acid]: the ISRE reporter worked out at 0.762.
As for `Cc1cccc(Cc2c[nH]cn2)c1C.Cl` [Detomidine HCl], the figure is 0.671.
As for `CCC1(c2cccc(O)c2)CCCCN(C)C1.Cl` (stereo not drawn) [Meptazinol HCl], the figure is 0.995; as for `COc1ccc(C(CN(C)C)C2(O)CCCCC2)cc1` (stereo not drawn) [Venlafaxine], 0.736.
On to `NCC(CC(=O)O)c1ccc(Cl)cc1` [(R)-baclofen], for which the ISRE reporter turned out to be 0.499.
As for `CC[N+](C)(CC)CCOC(=O)C(O)(c1ccccc1)c1ccccc1.[Br-]` [Methylbenactyzine Bromide], the figure is 0.558; as for `Br.CN1C2CC(OC(=O)C(CO)c3ccccc3)CC1C1OC12` (stereo not drawn) [Scopolamine HBr], 0.984.
As for `Cl.N=C(N)NN` [Aminoguanidine hydrochloride], the figure is 0.751; as for `CN1C2CCC1CC(OC(=O)C(CO)c1ccccc1)C2.CN1C2CCC1CC(OC(=O)C(CO)c1ccccc1)C2.O.O=S(=O)(O)O` (stereo not drawn) [Atropine sulfate monohydrate], 0.865; as for `CCC12C=CCN3CCC4(c5ccc(OC)cc5N(C)C4C(O)(C(=O)OC)C1OC(C)=O)C32` (stereo not drawn) [Vindoline], 0.982.
Turning to `CCCCCN(C)CCC(O)(P(=O)([O-])O)P(=O)(O)O.[Na+]` [ibandronic acid], the ISRE reporter was determined as 0.975.
